Experimental findings from publication PMC6919601, “Identification of Plasmodium dipeptidyl aminopeptidase allosteric inhibitors by high throughput screening” (PLoS ONE, 2019) are described below.

SMILES strings stand for the structures. In all, about 110,000 compounds went through this assay and about 230 (0.21%) showed an effect of 50% or more. The list shows a part of the results.
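Further: 30 min substrate incubation versus DMSO and 10 µM JCP410 controls.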

Chain of DPAP1 (Q8IIJ9 whole entry, looked up): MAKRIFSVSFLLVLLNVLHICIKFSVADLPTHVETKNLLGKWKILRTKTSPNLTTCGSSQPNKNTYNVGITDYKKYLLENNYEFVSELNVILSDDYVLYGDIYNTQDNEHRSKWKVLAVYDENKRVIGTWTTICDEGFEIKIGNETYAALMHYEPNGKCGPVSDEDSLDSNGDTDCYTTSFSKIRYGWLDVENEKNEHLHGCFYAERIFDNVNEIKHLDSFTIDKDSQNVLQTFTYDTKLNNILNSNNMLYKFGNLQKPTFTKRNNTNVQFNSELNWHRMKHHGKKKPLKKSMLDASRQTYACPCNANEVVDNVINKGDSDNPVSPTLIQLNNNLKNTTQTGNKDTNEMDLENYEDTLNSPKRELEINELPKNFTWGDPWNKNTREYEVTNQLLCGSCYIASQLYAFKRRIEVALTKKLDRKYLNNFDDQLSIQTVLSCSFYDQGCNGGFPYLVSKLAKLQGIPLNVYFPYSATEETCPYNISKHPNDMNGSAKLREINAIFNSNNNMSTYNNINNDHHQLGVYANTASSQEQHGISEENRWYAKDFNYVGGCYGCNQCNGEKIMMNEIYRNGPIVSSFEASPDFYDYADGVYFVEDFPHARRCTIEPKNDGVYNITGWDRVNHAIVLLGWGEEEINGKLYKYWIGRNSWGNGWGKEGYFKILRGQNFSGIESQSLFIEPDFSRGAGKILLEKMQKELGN

This experiment addresses DPAP1 (Plasmodium falciparum, UniProt Q8IIJ9). The experiment can be described thus: primary screen, percent inhibition; read by cleavage of a fluorogenic dipeptide substrate; higher = more effect of the substance. On the set-up: species or system P. falciparum D10 trophozoite lysates; single well.
In the case of `Cc1nc2ccc(S(=O)(=O)NC(C(=O)NCc3cccs3)c3ccccc3)cc2s1` (centres unmarked), the “% Inhibition @ 10 uM” value was -5.89%.
Consider `COC(=O)C1=C(C)N=c2s/c(=C\c3ccc(Cl)cc3)c(=O)n2C1/C=C/c1ccccc1` (centres unmarked), for which the “% Inhibition @ 10 uM” value is given as 0.219%.
Then `COC(=O)Nc1ccc(NC(=O)C23CC4CC(CC(C4)C2)C3)cc1`, with -1.06%.
Under `COC(=O)c1cc2ccc3c(c2oc1=O)CN(Cc1ccccc1)CO3` stands 10.6%.
Under `CCOC(=O)c1cc2cc3cc(C)ccc3nc2s1` stands 2.1%; under `O=C(c1ccc(Cl)c([N+](=O)[O-])c1)N(Cc1ccccc1)Cc1ccccc1`, 2.33%; under `Cc1oc(-c2ccc(Cl)cc2)nc1CN1CCCC(C(=O)NCc2ccccc2Cl)C1` (centres unmarked), 0.689%.
Take `CSC1=NSC2=NC(=O)/C(=C\c3ccco3)C(=N)N12`: the “% Inhibition @ 10 uM” value came to 4.06%.
Under `Cc1ccc(S(=O)(=O)Nc2nc(C)c(NC(=O)Nc3ccc(Cl)cc3)s2)cc1` stands 9.03%; under `COc1ccc(C(=O)NCc2oc(-c3ccccc3)cc2C(=O)O)cc1`, -5.53%.
Then `CC(O)(C#CCN1CCCCC1)c1ccccc1` (centres unmarked), with 0.98%; and `CCOCCCN1C(=O)CN(C2CCC(C)CC2)C(=O)C1c1ccc(C)cc1` (centres unmarked), with -5.8%.
Under `Cc1ccc(-c2cn3c4c(=O)n(C)c(=O)n(C)c4nc3n2CC(O)c2ccccc2)cc1` (centres unmarked) stands 0.883%.
Take `COc1ccc(/N=c2\scc(-c3ccc(OC)cc3)n2CCO)cc1`: the “% Inhibition @ 10 uM” value is recorded as -3.39%.
Turning to `C=CCSc1nc(-c2ccc(OC)cc2)cc(-c2ccc(OC)cc2)c1C#N`, the “% Inhibition @ 10 uM” value is reported as -3.66%.
Then `CC(C)CCNC(=O)C1CCCCN1S(=O)(=O)c1ccc(C(C)(C)C)cc1` (centres unmarked), with -0.228%; and `Cc1cc(C)c2ccc3c(C)c(C)n(C)c3c2n1`, with 13.3%; and `COc1cc(OC)cc(-c2nc3nc(C)c(CCC(=O)NCCC4=CCCCC4)c(C)n3n2)c1`, with -2.25%.
Under `CC1(C)C/C(=N/O)c2cc3c(nc2C1)CC(C)(C)C/C3=N\O` stands 1.41%; under `CCC(=O)Nc1ccccc1C(=O)Nc1ccccc1`, -4.97%; under `Cc1nnc2nc(SCC(=O)N3CCCC3)n(-c3cccc(Cl)c3C)c(N)c1-2`, 11.4%.
Under `O=C(Cc1cccs1)Nc1cccc(C(F)(F)F)c1` stands -0.641%.
For `CC(=O)Nc1ccc2c3c(cccc13)C(=O)N(C)C2=O`, the “% Inhibition @ 10 uM” value is reported as -0.693%.
Then `COc1ccc(S(=O)(=O)N(CC(=O)N2CCc3ccccc3C2)c2cc(C)cc(C)c2)cc1OC`, with 3.68%; and `Cc1cccc(-n2c(C)nnc2SCc2nc(-c3cccs3)no2)c1`, with -0.45%.
As for `CCN(CC)CCCNS(=O)(=O)c1ccc(-c2cc(C(F)(F)F)no2)s1`, the “% Inhibition @ 10 uM” value is -3.05%.
Under `COc1ccccc1-c1nnc2sc(-c3cc4ccccc4o3)nn12` stands 6.01%; under `COc1cc(OC)c(OC)cc1/C=C1\N=C(c2ccc(Cl)cc2Cl)OC1=O`, -4.27%.
Then `CC(C)(C)S(=O)(=O)c1c(Br)cccc1Br`, with 3.34%; and `CS(=O)(=O)N(CC(=O)NCc1cccnc1)C1CCCCC1`, with -2.74%.
Take `COc1ccc(S(=O)(=O)NC(c2ccccc2)c2ccccc2)cc1`: the “% Inhibition @ 10 uM” value was -1.48%.
Consider `Cc1ccc(S(=O)(=O)NCc2ccccn2)cc1C`, for which the “% Inhibition @ 10 uM” value came to 1.25%.
Then `CC(C)CC(NC(=O)c1ccc(-n2cccc2)cc1)C(=O)NCC#N` (centres unmarked), with -9.15%; and `Cn1c(=O)c2c(nc(NCc3ccc4c(c3)OCO4)n2Cc2cccc(Cl)c2)n(C)c1=O`, with -4.89%; and `OC1CCC2CCCNC2C1` (centres unmarked), with -5.47%.
For the compound `COc1ccccc1N1C(=O)C2CC=CCC2C1=O` (centres unmarked), the “% Inhibition @ 10 uM” value is -6.87%.
Then `Cc1ccc(NC(=O)c2c(-c3ccccc3)noc2C)c(Br)c1`, with -1.36%.
As for `CCOC(=O)c1c(/N=C(\C)C2=C(O)c3ccccc3C2=O)sc(C)c1C`, the “% Inhibition @ 10 uM” value was -2.13%.
Under `COc1cc(C(=O)N2CCN(C3CCN(Cc4ccccc4)CC3)CC2)cc(OC)c1OC` stands 2.26%; under `Cc1ccc(Cl)cc1N1CCN(C(=O)CN(c2ccccc2)S(C)(=O)=O)CC1`, -11.1%; under `CCCNC(=O)Cn1ncn2c(cc3cc(F)ccc32)c1=O`, 1.68%.
Under `CCN(CC)Cn1[nH]c(=O)ccc1=O` stands 1.26%; under `O=C(CCc1ccccc1)NC1(C(F)(F)F)C(=O)Nc2c1c(=O)[nH]c(=O)n2-c1ccc(Cl)cc1` (centres unmarked), -4.75%.
Then `CCC(=O)N1CCN(CC/N=C/C2=C(O)CC(C)(C)CC2=O)CC1`, with 1.74%.
Take `Oc1cccc(-n2ncnc2-c2ccccc2)c1`: the “% Inhibition @ 10 uM” value is on record as -0.307%.
Then `Cc1nn(C)c(C)c1CN(C)C(=O)c1cc2nc(-c3cccs3)cc(C(F)(F)F)n2n1`, with -1.37%.
Then `Cc1ccc(C)c(-c2csc(Nc3cccc4ccccc34)n2)c1`, with 1.41%; and `N#CCNC(=O)[C@@H](Cc1csc2ccccc12)NC(=O)OCc1ccccc1`, with -1.5%.
With `COC(=O)c1c(C)sc(C(c2cccc(Cl)c2)c2sc(C)c(C(=O)OC)c2O)c1O`, the “% Inhibition @ 10 uM” value is -1.24%.
For the compound `O=C(c1ccc(CS(=O)(=O)Cc2ccc(F)cc2)o1)N1CCC2(CC1)OCCO2`, the “% Inhibition @ 10 uM” value was -2.72%.
Under `O=C(O)c1c(CNCc2ccc3c(c2)OCO3)c2ccccc2n1Cc1ccccc1Cl` stands 12.2%; under `COc1ccccc1Nc1cc(C)nc2ccc(C)cc12`, -1.91%.
Under `COc1ccc(NC(=O)c2cc3cc(Br)ccc3oc2=O)cc1` stands 2.76%; under `CCN(CCN(C)C)C1CCN(Cc2ccccc2)CC1`, -1.21%; under `CS(=O)(=O)N(CC(=O)N1CCc2ccccc2C1)c1ccccc1F`, -21.6%.
Under `Cc1ccnc(NS(=O)(=O)c2ccc(NC(=O)c3ccc(C)o3)cc2)n1` stands 5.07%; under `Cc1ccc(C)c(NC(=O)C(C)N2C(=O)C3C4C=CC(C4)C3C2=O)c1` (centres unmarked), -7.97%.
Take `CCOC(=O)C1=C(C)N=c2s/c(=C\c3cccc(O)c3)c(=O)n2C1c1ccccc1` (centres unmarked): the “% Inhibition @ 10 uM” value worked out at 6.11%.
Then `COc1ccccc1-c1nnc(C2CCN(S(=O)(=O)c3ccc(Br)s3)CC2)o1`, with 2.34%; and `CC(=O)c1cccc(NC(=O)CCN2C(=O)c3ccccc3C2=O)c1`, with 1.33%.
Then `NC1=NC(=O)C(CC(=O)Nc2ccc(N3CCCCC3)cc2)S1` (centres unmarked), with -4.4%.
Under `Cc1nn(-c2ccccc2)c2c1N(CC(=O)NCC(C)c1ccccc1)C(=O)CS2` (centres unmarked) stands -3.79%; under `COc1ccc(CCNC(=O)Nc2cccs2)c(OC)c1`, -1.11%.
For `CC1CCN(CCCNC(=O)C2CCC(=O)N2C2CCCC2)CC1` (centres unmarked), the “% Inhibition @ 10 uM” value worked out at 3.79%.
Then `OCCN1CCN(CCCN2c3ccccc3Sc3ccccc32)CC1`, with -1.91%; and `Cc1ccccc1C(=O)NC(CC(=O)O)c1ccc(Cl)cc1` (centres unmarked), with 4.19%.
Under `CCOC(=O)N1CCN(CC(O)c2ccc3cc[nH]c3c2)CC1` (centres unmarked) stands -1.08%.
For the compound `CCCCc1[nH]nc2c1C(c1ccc(F)cc1F)C(C#N)=C(N)O2` (centres unmarked), the “% Inhibition @ 10 uM” value is given as -2.77%.
Consider `O=[N+]([O-])c1ccc(Cl)c(CN2CCN(c3ccccc3F)CC2)c1`, for which the “% Inhibition @ 10 uM” value was -3.71%.
Under `COc1ccc(-c2csc(NC(=O)c3ccccc3F)c2C(=O)O)cc1` stands 6.23%.
Then `N#CC1=C(N)N(c2nc[nH]n2)C2=C(C(=O)CC(c3ccccc3)C2)C1c1ccc(F)cc1` (centres unmarked), with -5.63%; and `Cc1ccc(Cl)cc1NC(=O)CN(c1ccc(F)cc1)S(=O)(=O)c1ccc2c(c1)OCCO2`, with 6.63%.
Then `COCCn1c(C)cc(C(=O)C(=O)Nc2nnc(COc3ccc(C)cc3)s2)c1C`, with 0.655%; and `COC(=O)c1ccc(N2C(=O)c3ccccc3C2=O)cc1O`, with -4.61%; and `COc1cc(-c2cc(C(=O)O)c3cc(Br)ccc3n2)cc(OC)c1OC`, with 0.795%.
For `O=C(NCc1ccccc1)c1ccc(C2SCC(=O)N2Cc2ccccc2)cc1` (centres unmarked), the “% Inhibition @ 10 uM” value was found to be 1.96%.
Under `Cc1cccc(-c2cc(C(=O)NCCCn3ccnc3)c3ccccc3n2)c1` stands -2.83%; under `COCCN1C(=O)/C(=C/c2cc(Br)cc(OC)c2O)S/C1=N\c1ccccc1`, -0.756%; under `N#Cc1c(NC(=O)c2cccc(Cl)c2)sc2c1CCCC2`, -0.268%.
Then `CCOC(=O)CC1(c2ccc(C)cc2)C(=O)c2ccccc2C1=O`, with -4.87%; and `CCc1ccc(CNCCCSc2nnnn2C)cc1`, with 0.596%; and `Cc1cccn2c(=O)c(/C=C(\C#N)c3nc4ccccc4s3)c(Oc3ccccc3)nc12`, with -5.1%.
Then `CCOC(=O)c1sc(NC(=O)CSc2nnc(Cc3csc(N)n3)n2C)nc1C`, with 2.23%.
`CCOc1ccc(NC(=O)c2ccccn2)cc1`: the “% Inhibition @ 10 uM” value is -3.43%.
Turning to `CCn1cnc2c(cnn2-c2ccc(Cl)cc2)c1=O`, the “% Inhibition @ 10 uM” value is on record as -1.75%.
Under `O=C(c1ccc(Cl)cc1Cl)N1CCN(c2ncccn2)CC1` stands 33.3%.
Consider `Cc1cc(C(=O)Nc2ccc(N3CCOCC3)cc2)ccc1[N+](=O)[O-]`, for which the “% Inhibition @ 10 uM” value is listed as -2.42%.
Then `COc1ccc(CN(C(C)=O)C2CC(=O)N(c3ccc(OC)cc3)C2=O)cc1` (centres unmarked), with 0.431%; and `CCCn1c(CN(Cc2ccccc2)Cc2ccccc2)nc2c1c(=O)n(C)c(=O)n2C`, with -2.29%; and `Cc1ccc2[nH]c(C)c(-c3ccccc3)c2c1`, with 2.08%.
Under `Cc1ccc(CCNC(=O)CN(C)S(=O)(=O)c2ccc3[nH]c4c(c3c2)CCCC4)cc1` stands -2.77%; under `Cc1ccc(N(CC(=O)N2CCN(C)CC2)S(=O)(=O)c2ccc(F)cc2)cc1`, -3.95%; under `O=C(NC(C(=O)O)C12CC3CC(CC(C3)C1)C2)c1cc(Cl)cc(Cl)c1` (centres unmarked), 0.634%.
As to `CCC(NC(=O)Cc1ccc(OC)c(OC)c1)c1ccccc1` (centres unmarked), the “% Inhibition @ 10 uM” value was -9.15%.
Then `CN1c2ccccc2CC1C(C)(C)C` (centres unmarked), with 3.72%; and `Cc1nnc(SCC(=O)NCc2ccco2)c2nn(-c3ccc(Cl)cc3)c(C)c12`, with -1.23%; and `CCC(C(=O)NCCCN1CCOCC1)n1nc(C)c2sc3ccccc3c2c1=O` (centres unmarked), with -1.01%.
Then `CCOC(=O)c1[nH]c(C)c(C(=O)Nc2nnc(CC)s2)c1C`, with 3.92%.
